The text below walks through data of PubChem BioAssay AID463173 (ICCB-Longwood Screening Facility, Harvard Medical School, 2010).

Hit rate of the full screen: of about 52,000 compounds, about 4,300 (8.3%) were called active. Rule as the data show it: active = survival mostly below about 52% (no sharp cut-off); inactive = mostly above about 56%. Some of the results follow.

The experiment concerns DeltatarO mutant. Put plainly: growth inhibition of S. aureus wild type versus tarO mutant, primary screen, teichoic acid synthesis inhibitors, RN4220, OD600 (AID 463173). The settings on record: OD600, 18 h, active compounds read low, screened at 18.75 µg/mL (by protocol).
Consider `Cc1ccc(NC(=O)Cn2cc(S(=O)(=O)N3CCCC3)c(S(=O)(=O)N3CCCC3)c2)cc1C`, for which the survival was inactive: 70%. For `CCN1CCN(c2cc(C)c3cc(NC(=O)/C=C/c4cccc(Cl)c4)ccc3n2)CC1`, the survival was active: 44%.

For the molecule `CCOc1ccc(NC(=O)c2ccc(-c3cccc(Cl)c3C)o2)cc1`, the survival is active: 42%.

On to `Cc1ccc(N2CC(c3nnc(NC(=O)c4ccco4)s3)CC2=O)cc1C` (stereo not given), for which the survival was inactive: 62%. With `COC(=O)Cn1cnc2c1c(=O)[nH]c(=O)n2C`, the survival was inactive: 105%. Take `O=C(NC1CCCC1)c1ccc(CSc2nc3ccncc3n2Cc2ccc(F)cc2)cc1`: the survival was inactive: 68%. As for `COc1ccc(-n2cc(C(=O)NC(C)c3ccccc3)c3ccccc3c2=O)cc1` (stereo not given), the survival is inactive: 60%. For the molecule `COc1ccc(C(=O)NCCSc2c(C)[nH]c3ccccc23)cc1`, the survival was inactive: 92%. Regarding `CN1CN2C(=O)N3CN(C)CN4C(=O)N(C1)C2C34` (stereo not given), the survival is inactive: 73%. Consider `COCCn1ccc2c(OCC(=O)NCc3ccc(F)cc3)cccc2c1=O`, for which the survival is inactive: 92%. Turning to `Cc1ccc(NC(=O)Nc2nnc(SCC(=O)N3CCC(C)CC3)s2)cc1`, the survival is inactive: 70%.

Take `O=c1c2cc3c(nc2ncn1Cc1ccccc1F)CCCC3`: the survival was inactive: 100%. Turning to `Cc1cccc(C2C=C(c3ccc(F)cc3)Nc3nc4ccccc4n32)c1` (stereo not given), the survival is inactive: 84%. In the case of `CCOC(=O)c1cnc2c(ccc3ccccc32)c1Nc1ccc(OC)c(OC)c1`, the survival was active: 7%. The value for `CCOc1ccc(Cn2c(CNS(=O)(=O)c3ccc([N+](=O)[O-])cc3)nc3cccnc32)cc1` was inactive: 94%.

Turning to `Cc1ccc(NC(=O)/C(C#N)=C/c2cn(CC(=O)NCc3ccco3)c3ccccc23)cc1Cl`, the survival is inactive: 64%. Turning to `Cc1ccc(OCC(O)CN)cc1` (stereo not given), the survival was inactive: 88%. With `COc1ccccc1CNC(=O)c1oc2c(c1C)-c1nn(Cc3ccc(Cl)cc3)cc1CC2`, the survival is inactive: 59%. In the case of `CN(C)c1ccc(CNC(=O)C2CCN(S(=O)(=O)c3cn(C)cn3)CC2)cc1`, the survival is active: 0%. In the case of `Cc1c(C(=O)Nc2ccncc2)oc2ccccc12`, the survival is inactive: 98%. Take `Cc1ccc(C)c(CN2C(=O)c3ccccc3S(=O)c3ccc(C(=O)NCCc4ccc(Cl)cc4)cc32)c1` (stereo not given): the survival was inactive: 65%. Turning to `Cc1c(NS(C)(=O)=O)cccc1-c1nc2ccccc2s1`, the survival was inactive: 49%. With `O=c1c2ccc(N3CCOCC3)c3cccc(c32)c2nc3ccccc3n12`, the survival is inactive: 90%. Take `COc1ccc(NC(=O)c2sc3nc(-c4cc5cccc(OC)c5oc4=O)[nH]c(=O)c3c2C)cc1`: the survival was inactive: 46%. `COc1ccccc1-c1cc(C(F)(F)F)nc(S(=O)(=O)CCCC(=O)Nc2ccc(F)c(Cl)c2)n1`: the survival was inactive: 87%.

`COc1ccc(C(=O)N2CCC(c3c[nH]c4ccccc34)(c3c[nH]c4ccccc34)CC2)cc1`: the survival is inactive: 84%. On to `COc1cc(C2/C(=C(\O)c3ccc(F)cc3)C(=O)C(=O)N2Cc2cccnc2)ccc1O` (stereo not given), for which the survival is inactive: 88%.

With `Cc1ccc(NC(=O)CN2C=NS(=O)(=O)c3ccccc32)c(C)c1`, the survival was inactive: 99%. Turning to `COc1ccc(NC(=O)CN2C(=O)COc3ccc(S(=O)(=O)N4CCOCC4)cc32)cc1Cl`, the survival was inactive: 87%. `COc1ccc(NC(=O)Nc2nnc(N3CCCCCC3)s2)c(OC)c1`: the survival was inactive: 73%. In the case of `COc1ccc(N2CCN(C(=O)CCS(=O)(=O)c3cc(Br)cc4c3N(C(=O)C3CC3)CC4)CC2)cc1` it was inactive: 94%; in that of `NCc1ccoc1C(=O)O`, inactive: 98%; in that of `CC1CCN(CC(=O)Nc2ccc(C(=O)O)cc2)CC1`, inactive: 59%. On to `CCOc1ccc(N(CC)S(=O)(=O)N2CCCC(C(=O)NCc3ccc(SC)cc3)C2)cc1` (stereo not given), for which the survival is inactive: 70%. With `COc1cccc(CNC(=O)NCc2noc3ccc(C)cc23)c1`, the survival is inactive: 74%. On to `Cn1nc(CC(=O)Nc2ccc3c(c2)CCC3)c2ccccc2c1=O`, for which the survival is inactive: 106%. Turning to `Cc1nc2cc(C(=O)O)ccc2n1-c1ccc(C(C)C)cc1`, the survival was inactive: 68%. In the case of `CCOC(=O)c1sc(NC(=O)c2cc3nc(-c4ccc(Br)cc4)cc(C(F)(F)F)n3n2)c(C(=O)OCC)c1C`, the survival is inactive: 112%.

Regarding `CCOC(=O)CCn1nc(C)c2c(C)n(-c3ccccc3)nc2c1=O`, the survival was inactive: 87%. Consider `Cc1cccc(N2CCN(C(=O)Cn3c(=O)c4cccn4c4ccc(F)cc43)CC2)c1C`, for which the survival is inactive: 74%.

As to `Cc1ccc(N2CC(NC(=O)CCc3ccccc3)CC2=O)cc1` (stereo not given), the survival is active: 20%. In the case of `COc1ccccc1C(=O)NC(=O)Nc1ccc(-n2nc(C(F)(F)F)cc2C(F)(F)F)cc1` it was inactive: 59%; in that of `COc1ccc(C2(O)CC3CCC(C2)N3c2cc(C)nc(-c3ccccc3)n2)cc1` (stereo not given), inactive: 85%. The value for `CC1=C(C(=O)NCc2ccc(Cl)cc2)C2(CCCCCC2)OC1=O` was inactive: 92%; that for `COc1ccc(-c2ccc3c(N)c(C(=O)Nc4cccc(C)c4)sc3n2)cc1` was inactive: 82%. `COc1cccc(CSc2nc3n(n2)C(c2cccnc2)C(C(=O)Nc2ccccc2C)=C(C)N3)c1` (stereo not given): the survival was inactive: 74%. The value for `COc1ccccc1C(=O)Nc1ccc(C(=O)OCc2cc(=O)n3ccsc3n2)cc1` was inactive: 96%. For `COc1ccccc1N(CC(O)Cn1ccnc1C)S(=O)(=O)c1ccc(C)cc1` (stereo not given), the survival was inactive: 69%. In the case of `CCc1cccc(NC(=O)CN2C=NS(=O)(=O)c3ccccc32)c1` it was inactive: 75%.

`CCOC(=O)c1ccccc1NC(=O)N(Cc1ccco1)C1CCN(C(C)=O)CC1`: the survival is inactive: 126%.

`CCOc1nc(NC(=O)NS(=O)(=O)Oc2ccccc2Cl)nc(-c2ccccc2)n1`: the survival is inactive: 70%. The value for `Cc1ccc(C)n1-c1nnc(N2CCCC(C(=O)NCc3ccccc3)C2)s1` (stereo not given) was inactive: 96%; that for `Cc1ccc(NC(=O)CCc2c(C)nc3nc(C)nn3c2C)c(Cl)c1` was inactive: 89%; that for `Cc1ccc(NC(=O)c2ccc(Br)cc2)c(C(=O)c2ccccc2)c1` was active: -2%. In the case of `CC(C)CC(=O)Nc1ccc(Cl)c(-c2nc3ccccc3[nH]2)c1`, the survival is active: 39%. With `COc1ccc(Br)cc1CSC(=N)N`, the survival is inactive: 84%.

Turning to `Cc1nc2nc(SCC(=O)NCc3ccccc3)nn2c(C)c1Cc1ccccc1`, the survival is active: 8%. Take `COc1ccc(OC)c(CNC(=O)CN2C(=O)CCn3nc(-c4cn(C)c5ccccc45)cc32)c1`: the survival is inactive: 60%. `N#Cc1ccc(NS(=O)(=O)c2ccc(-c3cnc(C4CC4)o3)cc2)cc1`: the survival was inactive: 69%. Take `Cc1ccc(-c2nn3c(-c4ccc(C)cc4)nnc3c3ccccc23)cc1`: the survival is active: 20%. As to `COc1ccccc1-n1c(SCC(=O)Nc2ccc(C)cc2)nc(O)cc1=O`, the survival is inactive: 61%. Turning to `O=C(CCCn1c2ccccc2c(=O)c2ccccc21)Nc1ccc(F)cc1Cl`, the survival was inactive: 51%. Consider `COc1cc(CN(C(=O)c2oc3ccccc3c2C)C2CCS(=O)(=O)C2)cc(OC)c1OC` (stereo not given), for which the survival is inactive: 55%. In the case of `Cc1ccc(N(Cc2cccs2)C(=O)COc2ccccc2[N+](=O)[O-])cc1` it was inactive: 60%; in that of `CC(=O)Nc1ccc(S(=O)(=O)NCCc2csc3nc(-c4cccc(C)c4)nn23)cc1`, inactive: 80%; in that of `Cc1cccc(-c2nc(Cn3c(SCc4cc(C)ccc4C)nc4ccncc43)c(C)o2)c1`, inactive: 53%. With `O=C(NCc1ccccc1Cl)C1CCC(CNS(=O)(=O)c2ccc(Br)s2)CC1` (stereo not given), the survival was inactive: 124%.

Regarding `CCc1ccc(NC(=O)CSc2nc3ccsc3c(=O)n2C(C)CC)cc1` (stereo not given), the survival was inactive: 101%.

Consider `COc1ccc(CCNC(=O)c2nn(C)c3c2CSc2ccccc2-3)cc1OC`, for which the survival is inactive: 70%. In the case of `O=C(NCc1ccccc1)C(=O)NCC(c1cccnc1)N1CCN(c2ccccc2)CC1` (stereo not given) it was active: 45%; in that of `CN(C)c1ccc(NC(=O)CSC2=Nc3ccccc3C3=NC(CC(=O)NCc4ccccc4)C(=O)N23)cc1` (stereo not given), inactive: 79%. `CCOc1ccccc1CN(CCc1ccc2c(c1)OCO2)Cc1cccc(OC)c1OC`: the survival was active: 34%.

In the case of `CCN1CCC(N(Cc2ccc3c(c2)OCO3)C(=O)Nc2ccccc2OC)CC1`, the survival is inactive: 89%. The value for `COc1cc(NC(=O)C(CCS(C)(=O)=O)N2Cc3ccccc3C2=O)cc(OC)c1OC` (stereo not given) was inactive: 55%.

On to `COc1cccc(C2CC(=O)N3CN(C4CCCCC4)CSC3=C2C#N)c1` (stereo not given), for which the survival is inactive: 88%. Take `CC1CN(C(=O)N2CCC(C(=O)NC3CCCCCC3)CC2)c2ccccc2O1` (stereo not given): the survival is inactive: 68%. In the case of `CCCN1C(=O)c2[nH]nc(-c3ccc(F)cc3)c2C1c1ccccn1` (stereo not given) it was inactive: 54%; in that of `COc1cccc(NC(=O)c2cc3c(=O)n(Cc4cccnc4)ccc3nc2C)c1`, inactive: 101%; in that of `COc1ccccc1CNC(=O)CCC1N=C2c3ccccc3N=C(SCC(=O)NCCc3ccc(OC)c(OC)c3)N2C1=O` (stereo not given), inactive: 92%. As to `COc1ccc(NC(=O)OCC(F)(F)F)cc1`, the survival was inactive: 72%. The value for `CCc1ccc(-c2cc(C)no2)cc1S(=O)(=O)Nc1ccc(Cl)cc1` was inactive: 68%. Turning to `Cc1ccc(C2C(=O)N(C3CCCCCC3)CC(=O)N2C(C)C)cc1` (stereo not given), the survival was inactive: 94%.

As to `Cc1ccccc1C(=O)Nc1sc2c(c1C(=O)O)CCC(C(C)(C)C)C2` (stereo not given), the survival is active: -2%. As to `O=C(CSc1nc2c([nH]c3ccccc32)c(=O)n1-c1ccc(F)cc1)NCC1CCCO1` (stereo not given), the survival is inactive: 89%. In the case of `Cc1cc(=O)oc2cc(OCC(=O)N(C)C)c(Cl)cc12` it was inactive: 60%. In the case of `O=C(CSc1nc2c([nH]c3ccccc32)c(=O)n1-c1ccccc1)N1CCCc2ccccc21`, the survival is inactive: 117%. Take `Cc1cc(C)c2c(n1)SCC(=O)N2CC(=O)Nc1ccccc1C`: the survival is inactive: 101%.

`CNC(=O)C1CCC(Cn2c(=O)c3sccc3n(CC(=O)NCc3ccc(C)cc3)c2=O)CC1` (stereo not given): the survival is inactive: 80%. As for `COc1ccc(NC(=O)Cn2c(=O)oc3cc(Cl)ccc32)c(OC)c1`, the survival is inactive: 91%.

In the case of `Cn1c(=O)oc2cc(S(=O)(=O)N3CCCC(C(=O)NCc4ccccc4Cl)C3)ccc21` (stereo not given), the survival was inactive: 97%.
